Experimental data as given in the supplement of paper PMC4723716.
± gives the uncertainty stated by the source. Over roughly 9,900 compounds, “viability index relative to DMSO control” has its median near 1; the lowest 2% begin near 0.85. This is one part of the list.

System: Plasmodium falciparum NF54 stage V gametocytes
Experiment: viability index relative to DMSO control (fraction); higher = less gametocyte killing
Conditions: 2.5 µM, incubation time: 72 h
In short: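 Compound at 2.5 µM was incubated for 72 hr at 37°C under low oxygen with P. falciparum NF54 stage V gametocytes (0.75% gametocytemia, 1.25% hematocrit, 10 µl, serum-free screening medium) in 1,536-well plates. Staining used 3 µl of 2.5 µM MitoTracker Red CMXRos plus 0.13% saponin for one to two hours, and red particles of 20–70 µm2 were counted in one imaged field per well. Each viability index is that count relative to the plate mean of solvent-only wells.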

[1] = library set: Broad Institute DOS

| SMILES | viability index [1] | viability index (library set: Broad Institute Blood Stage) |
| --- | --- | --- |
| CO[C@H]1CN(C)C(=O)c2ccc(NS(=O)(=O)c3ccc(C)cc3)cc2OC[C@@H](C)N(C)C[C@@H]1C | 1.1 ± 0.075 |  |
| C[C@@H]1CN([C@H](C)CO)C(=O)c2cccc(NC(=O)c3nc4ccccc4s3)c2O[C@@H]1CN(C)C(=O)Nc1ccc2c(c1)OCO2 | 0.917 ± 0.013 |  |
| CCCN(C)C[C@@H]1Oc2cc(/C=C/c3ccccc3)ccc2S(=O)(=O)N([C@@H](C)CO)C[C@@H]1C | 0.957 ± 0.068 |  |
| Cn1cnc(S(=O)(=O)N[C@H]2CC[C@@H](CC(=O)NCC3CCCCC3)O[C@@H]2CO)c1 | 1.03 ± 0.058 |  |
| C/C=C/c1ccc2c(c1)[C@@H]1[C@@H](CCN1C(=O)C1CCCC1)[C@H](CO)N2 | 1.06 ± 0.045 |  |
| CO[C@H]1CN(C)C(=O)c2cc(NC(=O)c3ccc(Oc4ccccc4)cc3)ccc2OC[C@H](C)NC[C@@H]1C | 1.02 ± 0.015 |  |
| O=C(Cc1ccccc1)N1CC(=O)N2[C@H](C1)[C@@H](c1ccc(-c3ccc(F)cc3)cc1)[C@@H]2CO | 1.02 ± 0.05 |  |
| COC(=O)c1ccc(CN2CC(=O)N3[C@H](CO)[C@@H](c4ccc(-c5cccnc5)cc4)[C@H]3C2)cc1 | 0.986 ± 0.01 |  |
| COc1ccc(NC(=O)N(C)C[C@H]2Oc3c(NC(=O)CCCCCC(=O)Nc4ccccc4N)cccc3C(=O)N([C@@H](C)CO)C[C@@H]2C)cc1 | 0.991 ± 0.081 |  |
| CCCNC(=O)C[C@H]1CC[C@@H]2[C@H](COC[C@@H](O)CN2Cc2ccncc2)O1 | 1.03 ± 0.025 |  |
| CO[C@H](CN(C)Cc1ccc2c(c1)OCO2)[C@@H](C)CN(C(=O)c1ccccc1)[C@@H](C)CO | 1.01 ± 0.05 |  |
| CCCNC(=O)N1C[C@H]2[C@@H](c3ccccc31)[C@H](CO)N2C(=O)CN1CCOCC1 | 0.923 ± 0.037 |  |
| COCC#Cc1ccc([C@H]2[C@@H](C#N)N(C(=O)Cc3ccccc3)[C@@H]2CO)cc1 | 1 ± 0.026 |  |
| CN1C(=O)c2cc(NC(=O)c3ccno3)ccc2OC[C@H]2O[C@@H](CC(=O)Nc3ccccc3)CC[C@@H]21 | 1.09 ± 0.019 |  |
| C[C@H](CO)N1C[C@H](C)[C@H](CN(C)C(=O)Nc2ccc(C(F)(F)F)cc2)Oc2ccc(NS(=O)(=O)c3ccc(Cl)cc3)cc2CC1=O | 1.009 ± 0.0083 |  |
| CO[C@@H](C(=O)N(C)C[C@H]1OCc2ccccc2-c2ccccc2C(=O)N([C@H](C)CO)C[C@H]1C)c1ccccc1 | 1.02 ± 0.042 |  |
| O=C(C[C@H]1C[C@H]2c3cc(NS(=O)(=O)c4ccccc4)ccc3O[C@H]2[C@@H](CO)O1)NCC(F)(F)F | 1.1 ± 0.012 |  |
| CN1C(=O)c2cc(NC(=O)NCc3ccccc3)ccc2OC[C@H]2O[C@H](CC(=O)NCC3CCCCC3)CC[C@H]21 | 0.979 ± 0.042 |  |
| COc1cccc(-c2cccc(-c3nc(C(=O)NCc4ccc(Oc5ccccc5)cc4)cc4c3[C@@H](CCO)N(S(=O)C(C)(C)C)C4)c2)c1 (stereo partly drawn) |  | 0.799 ± 0.032 |
| CN1c2ccc(-c3ccccc3)cc2[C@@H]2[C@@H](CCN2C(=O)CC2CC2)[C@@H]1CO | 1.03 ± 0.024 |  |
| C[C@H](NC(=O)C[C@@H]1C=C[C@@H](NS(=O)(=O)c2cccc(F)c2)[C@H](CO)O1)c1ccccc1 | 1.13 ± 0.078 |  |
| CO[C@H]1CC[C@@H]2CCOc3c(C#N)cccc3C(=O)N(C)CCCC(=O)N(C)C[C@H]1O2 | 0.967 ± 0.0056 |  |

| SMILES | viability index [1] | viability index (library set: Broad Institute Blood Stage) |
| --- | --- | --- |
| C[C@@H]1CN([C@@H](C)CO)C(=O)c2cc(NC(=O)C3CCCCC3)ccc2O[C@@H]1CN(C)Cc1ccc2c(c1)OCO2 | 0.975 ± 0.098 |  |
| CCCNC(=O)N1C[C@@]2(C1)CN([C@@H](CO)c1c2c2ccc(OC)cc2n1C)S(C)(=O)=O | 0.987 ± 0.013 |  |
| CCCNC(=O)N1[C@H](C#N)[C@H](c2ccccc2C2=CCCCC2)[C@@H]1CO | 0.994 ± 0.071 |  |
| C[C@H](CO)N1C[C@H](C)[C@@H](CN(C)Cc2ccc(Cl)c(Cl)c2)OCCCC[C@H](C)Oc2ccc(NC(=O)c3ccncc3)cc2C1=O | 1.12 ± 0.054 |  |
| O=C(c1ccccn1)N1CC[C@@H]2[C@H](CO)Nc3ccc(Br)cc3[C@@H]21 | 1.07 ± 0.053 |  |
| COc1ccc(S(=O)(=O)N(C)C[C@@H]2OCCCC[C@H](C)Oc3ccc(NC(=O)Cc4ccccc4)cc3C(=O)N([C@@H](C)CO)C[C@@H]2C)cc1 | 1.05 ± 0.1 |  |
| COCC(=O)N1C[C@@]2(C1)CN([C@H](CO)c1[nH]c3cc(OC)ccc3c21)C(=O)Nc1ccccc1F | 1.03 ± 0.071 |  |
| C/C=C/c1ccc([C@@H]2[C@H]3CN(CCC(F)(F)F)CCCCN3[C@H]2CO)cc1 | 1.07 ± 0.084 |  |
| COc1ccc(S(=O)(=O)Nc2ccc3c(c2)C(=O)N([C@@H](C)CO)C[C@@H](C)[C@H](CN(C)S(=O)(=O)c2ccc(Cl)cc2)OCCCC[C@H](C)O3)cc1 | 0.9073 ± 0.0032 |  |
| CCCNC(=O)N(C)C[C@@H]1Oc2cc(C#C[C@@H](C)O)ccc2S(=O)(=O)N([C@H](C)CO)C[C@@H]1C | 1.04 ± 0.021 |  |
| COc1ccc2c3c([nH]c2c1)[C@H](CO)N(Cc1ccccc1)C[C@]31CCN(CC1)C(=O)NC(C)C | 1.05 ± 0.073 |  |
| C[C@H]1CN([C@@H](C)CO)C(=O)c2c(c3ccccc3n2C)-c2ccccc2CO[C@H]1CN(C)C(=O)Nc1ccc2c(c1)OCO2 | 1.014 ± 0.0037 |  |
| O=C(NC[C@H]1N[C@H](CO)[C@H]1c1ccc(-c2ccccc2F)cc1)c1ccccn1 | 1.02 ± 0.07 |  |
| Cc1noc(C)c1NC(=O)N(C)C[C@@H]1OCc2ccccc2-c2c(n(C)c3ccccc23)C(=O)N([C@H](C)CO)C[C@@H]1C | 0.967 ± 0.058 |  |
| COc1ccc(-c2ccc([C@H]3[C@H]4CNC[C@@H]3N4S(=O)(=O)c3cn(C)cn3)cc2)cc1 | 1.0563 ± 0.00097 |  |
| COc1ccc(NC(=O)N[C@@H]2CC[C@@H](CCNC(=O)CN3CCOCC3)O[C@H]2CO)cc1 | 0.981 ± 0.057 |  |
| CN(C)CC(=O)N1[C@@H](CO)[C@@H](c2ccccc2)C12CN(CCC(F)(F)F)C2 | 1.03 ± 0.092 |  |
| CN1C(=O)c2cc(NC(=O)c3cnccn3)ccc2OC[C@H]2O[C@H](CC(=O)NCC3CCCCC3)CC[C@@H]21 | 0.959 ± 0.028 |  |
| COc1cccc(S(=O)(=O)N(C)C[C@H]2OCc3ccccc3-c3c(n(C)c4ccccc34)C(=O)N([C@H](C)CO)C[C@@H]2C)c1 | 0.975 ± 0.027 |  |
| C/C=C/c1ccc2n(c1=O)C[C@H]1[C@H](CO)[C@@H](C(=O)Nc3ccc(-c4ccccc4)cc3)[C@@H]2N1C(=O)CC.C/C=C\c1ccc2n(c1=O)C[C@H]1[C@H](CO)[C@@H](C(=O)Nc3ccc(-c4ccccc4)cc3)[C@@H]2N1C(=O)CC | 1.03 ± 0.1 |  |
| CC(C)c1cn(CC[C@@H]2CC[C@H](NS(=O)(=O)c3ccc(F)cc3)[C@H](CO)O2)nn1 | 1.1 ± 0.15 |  |
